Where “and” joins values, the source holds several entries; their conditions need not be identical. Equal values may be shown once. Where a name gives a salt, the structure may show the parent alone. In all, about 5,800 compounds went through this assay and about 620 (11%) showed activity.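 Rule for the calls: active = score above a cut-off or among the top three wells of a plate; in these data no inactive exceeds 0.85.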 The list shows a part of the results, in another mix than the full data.
Test system: primary human hepatic stellate cells (donor 1)
Assay: scaled lipid accumulation score (0 = DMSO-like, 1 = nortriptyline-like); higher = stronger HSC inactivation (lipid re-accumulation), active = hit call of the paper
Settings: 48 h
[1] = library stock concentration: 3.33 mM
[2] = library stock concentration: 10 mM
[3] = library stock concentration: 5.3 mM
[4] = library stock concentration: 1 mM
[5] = library stock concentration: 2 mM
[6] = library stock concentration: 4.4 mM
[7] = library stock concentration: 13.5 mM
[8] = library stock concentration: 2.3 mM

COc1ccc(O)cc1 [Mequinol]
scaled lipid accumulation score [1]: inactive: ≤ 0 | scaled lipid accumulation score [2]: inactive: ≤ -0.001

COc1ccc(O)cc1
scaled lipid accumulation score [2]: inactive: ≤ 0

CC(C)C[C@@H](C(=O)N[C@H](C(=O)OC1CCCC1)c1ccccc1)[C@H](O)C(=O)NO
scaled lipid accumulation score [2]: inactive: 0.007

CC(=O)NC(Cc1ccccc1)C(=O)O (stereo not given)
scaled lipid accumulation score [2]: inactive: 0.009

CCCCCCCCCCCCCCCCCCCCCCO [Docosanol]
scaled lipid accumulation score (library stock concentration: 6.1 mM): inactive: ≤ 0

CN1CCN(C2Cc3ccccc3Sc3ccc(Cl)cc32)CC1 (stereo not given)
scaled lipid accumulation score [2]: inactive: 0.378

NS(=O)(=O)c1cc2c(cc1Cl)NC(C(Cl)Cl)NS2(=O)=O (stereo not given) [Trichlormethiazide]
scaled lipid accumulation score: inactive: ≤ 0 | scaled lipid accumulation score [1]: inactive: 0.024 | scaled lipid accumulation score [3]: inactive: ≤ 0 | scaled lipid accumulation score [2]: inactive: ≤ 0

NS(=O)(=O)c1cc2c(cc1Cl)NC(C(Cl)Cl)NS2(=O)=O (stereo not given) [Trichloromethiazide]
scaled lipid accumulation score [3]: inactive: ≤ 0

CN1C(=O)C(c2c[nH]c3ccccc23)=C(c2c[nH]c3ccccc23)C1=O [Bisindolylmaleimide V]
scaled lipid accumulation score [4]: inactive: ≤ 0 | scaled lipid accumulation score [1]: inactive: ≤ 0

CN[C@@H]1[C@H](O)[C@H](NC)[C@H]2O[C@@]3(O)C(=O)C[C@@H](C)O[C@H]3O[C@@H]2[C@H]1O [Spectinomycin]
scaled lipid accumulation score (library stock concentration: 6 mM): inactive: ≤ -0.006

CN[C@@H]1[C@H](O)[C@H](NC)[C@H]2O[C@@]3(O)C(=O)C[C@@H](C)O[C@H]3O[C@@H]2[C@H]1O [Spectinomycin HCl]
scaled lipid accumulation score [1]: inactive: ≤ 0 | scaled lipid accumulation score [2]: inactive: ≤ 0

CN[C@@H]1[C@H](O)[C@H](NC)[C@H]2O[C@@]3(O)C(=O)C[C@@H](C)O[C@H]3O[C@@H]2[C@H]1O [Spectinomycin dihydrochloride]
scaled lipid accumulation score: inactive: ≤ 0

CN[C@@H]1[C@H](O)[C@H](NC)[C@H]2O[C@@]3(O)C(=O)C[C@@H](C)O[C@H]3O[C@@H]2[C@H]1O [Spectinomycin hydrochloride]
scaled lipid accumulation score (library stock concentration: 4.9 mM): inactive: ≤ 0 | scaled lipid accumulation score [2]: inactive: ≤ 0

CN[C@@H]1[C@H](O)[C@H](NC)[C@H]2O[C@@]3(O)C(=O)C[C@@H](C)O[C@H]3O[C@@H]2[C@H]1O
scaled lipid accumulation score [2]: inactive: ≤ 0

CN[C@H](CC(=O)O)C(=O)O [N-Methyl-D-aspartic acid]
scaled lipid accumulation score [2]: inactive: 0.04

CN[C@H](CC(=O)O)C(=O)O [N-methyl-d-aspartic acid (nmda)]
scaled lipid accumulation score [2]: inactive: ≤ -0.027

NC(=O)c1cnc(N[C@@H]2CCCC[C@@H]2N)nc1Nc1cccc(-n2nccn2)c1
scaled lipid accumulation score (library stock concentration: 80 uM): inactive: ≤ 0 | scaled lipid accumulation score (library stock concentration: 400 uM): inactive: 0.015 | scaled lipid accumulation score [5]: inactive: 0.218 | scaled lipid accumulation score [1]: inactive: 0.214 | scaled lipid accumulation score [2]: inactive: 0.215 and inactive: 0.449

Cc1onc(-c2ccccc2Cl)c1C(=O)N[C@@H]1C(=O)N2[C@@H]1SC(C)(C)[C@@H]2C(=O)O [Cloxacillin sodium salt]
scaled lipid accumulation score: inactive: 0.071

Cc1onc(-c2ccccc2Cl)c1C(=O)N[C@@H]1C(=O)N2[C@@H]1SC(C)(C)[C@@H]2C(=O)O [Cloxacillin Sodium]
scaled lipid accumulation score [1]: inactive: ≤ 0 | scaled lipid accumulation score [2]: inactive: 0.009

Cc1onc(-c2ccccc2Cl)c1C(=O)N[C@@H]1C(=O)N2[C@@H]1SC(C)(C)[C@@H]2C(=O)O [Cloxacillin sodium]
scaled lipid accumulation score [6]: inactive: 0.008 | scaled lipid accumulation score [2]: inactive: ≤ 0

CN(CCO)CC(O)Cn1cnc2c1c(=O)n(C)c(=O)n2C (stereo not given)
scaled lipid accumulation score [2]: inactive: ≤ 0

COc1ccc(Cn2ccc3ccc(C(=O)NO)cc32)cc1
scaled lipid accumulation score [1]: inactive: ≤ 0 | scaled lipid accumulation score [2]: inactive: ≤ 0

CCCn1cc(-c2ccnc(NC3CCN(Cc4cccnc4)CC3)n2)c(C)n1
scaled lipid accumulation score [2]: active: 0.91

Cn1c(=O)c2[nH]c(-c3ccccc3)nc2n(C)c1=O [1,3-Dimethyl-8-phenylxanthine]
scaled lipid accumulation score [2]: inactive: ≤ -0.055

COC(=O)C1=CO[C@@H](O[C@@H]2O[C@H](CO)[C@@H](O)[C@H](O)[C@H]2O)[C@@H]2C(CO)=CC[C@H]12 [Geniposide]
scaled lipid accumulation score [1]: inactive: ≤ 0 | scaled lipid accumulation score [2]: inactive: 0.125

CC(C)Nc1cccnc1N1CCN(C(=O)c2cc3cc(NS(C)(=O)=O)ccc3[nH]2)CC1 [Delavirdine mesylate]
scaled lipid accumulation score [6]: inactive: ≤ -0.006

COc1cccc2c1C(=O)c1c(O)c3c(c(O)c1C2=O)C[C@@](O)(C(=O)CO)C[C@@H]3O[C@H]1C[C@H](N)[C@@H](O)[C@H](C)O1
scaled lipid accumulation score [2]: inactive: 0.36

COc1cccc2c1C(=O)c1c(O)c3c(c(O)c1C2=O)C[C@@](O)(C(=O)CO)C[C@@H]3O[C@H]1C[C@H](N)[C@@H](O)[C@H](C)O1 [Epirubicin HCl]
scaled lipid accumulation score [1]: inactive: ≤ 0 | scaled lipid accumulation score [2]: inactive: ≤ 0

C/C=C/c1ccc(OC)cc1 [Anethole, trans-]
scaled lipid accumulation score [7]: inactive: ≤ -0.006

C/C=C/c1ccc(OC)cc1 [Anethole]
scaled lipid accumulation score [2]: inactive: 0.104 | scaled lipid accumulation score [7]: inactive: ≤ 0

CC(=O)O/N=C1/C(c2c(O)[nH]c3cc(Br)ccc23)=Nc2ccccc21 [GSK-3 Inhibitor X]
scaled lipid accumulation score [1]: inactive: ≤ 0

C=C(C)[C@@H]1CC[C@]2(CO)CC[C@]3(C)[C@H](CC[C@@H]4[C@@]5(C)CC[C@H](O)C(C)(C)[C@@H]5CC[C@]43C)[C@@H]12 [Betulin]
scaled lipid accumulation score: inactive: ≤ 0

CCCCC(C)(C)[C@H](O)/C=C/[C@@H]1[C@@H](C/C=C\CCCC(=O)O)[C@H](O)C[C@H]1O [16,16-dimethyl Prostaglandin F2.beta.]
scaled lipid accumulation score [4]: inactive: ≤ 0

N=C(N)c1ccc(N)cc1 [4-Aminobenzamidine dihydrochloride]
scaled lipid accumulation score [2]: inactive: ≤ 0

CCCN(CCC)CCc1cccc2c1CC(=O)N2 [Ropinirole hydrochloride]
scaled lipid accumulation score [2]: inactive: ≤ 0

CCCN(CCC)CCc1cccc2c1CC(=O)N2 [Ropinirole HCl]
scaled lipid accumulation score [1]: inactive: 0.02 | scaled lipid accumulation score [2]: inactive: ≤ 0

CCCN(CCC)CCc1cccc2c1CC(=O)N2 [Ropinirole]
scaled lipid accumulation score (library stock concentration: 7.7 mM): inactive: ≤ 0

O=C(O)CCCCCCC1C(=O)N(Cc2ccccc2)C(=O)N1NCC(O)C1CCCCC1 (stereo not given)
scaled lipid accumulation score [4]: inactive: ≤ 0

CC(=O)O[C@H]1C(=O)[C@@]2(C)[C@H]([C@H](OC(=O)c3ccccc3)[C@]3(O)C[C@H](OC(=O)[C@H](O)[C@@H](NC(=O)c4ccccc4)c4ccccc4)C(C)=C1C3(C)C)[C@]1(OC(C)=O)CO[C@@H]1C[C@@H]2O [Taxol]
scaled lipid accumulation score [8]: inactive: ≤ 0 | scaled lipid accumulation score [2]: inactive: ≤ -0.006

CC(=O)O[C@H]1C(=O)[C@@]2(C)[C@H]([C@H](OC(=O)c3ccccc3)[C@]3(O)C[C@H](OC(=O)[C@H](O)[C@@H](NC(=O)c4ccccc4)c4ccccc4)C(C)=C1C3(C)C)[C@]1(OC(C)=O)CO[C@@H]1C[C@@H]2O [Taxol = Paclitaxel]
scaled lipid accumulation score (library stock concentration: 5.8 mM): inactive: ≤ -0.012

CC(=O)O[C@H]1C(=O)[C@@]2(C)[C@H]([C@H](OC(=O)c3ccccc3)[C@]3(O)C[C@H](OC(=O)[C@H](O)[C@@H](NC(=O)c4ccccc4)c4ccccc4)C(C)=C1C3(C)C)[C@]1(OC(C)=O)CO[C@@H]1C[C@@H]2O [Paclitaxel]
scaled lipid accumulation score: inactive: ≤ 0 | scaled lipid accumulation score [8]: inactive: ≤ 0 | scaled lipid accumulation score [1]: inactive: ≤ 0 | scaled lipid accumulation score [2]: inactive: ≤ 0 and inactive: 0.124

NCCCCCc1c[nH]cn1 [Impentamine dihydrobromide]
scaled lipid accumulation score [2]: inactive: ≤ -0.006

Cc1[nH]c(=O)c(C#N)cc1-c1ccc2nccn2c1 [Olprinone hydrochloride]
scaled lipid accumulation score [2]: inactive: ≤ 0

NC(=O)c1cccc(-c2cccc(OC(=O)NC3CCCCC3)c2)c1
scaled lipid accumulation score [4]: inactive: ≤ 0 | scaled lipid accumulation score [1]: inactive: ≤ 0 | scaled lipid accumulation score [2]: inactive: 0.034

CN1CCCC1CCOC(C)(c1ccccc1)c1ccc(Cl)cc1.O=C(O)/C=C/C(=O)O (stereo not given) [Clemastine fumarate]
scaled lipid accumulation score [2]: active: 0.942

CN(C(Cc1ccc(OS(=O)(=O)c2cccc3cnccc23)cc1)C(=O)N1CCN(c2ccccc2)CC1)S(=O)(=O)c1cccc2cnccc12 (stereo not given)
scaled lipid accumulation score [1]: inactive: ≤ -0.009 | scaled lipid accumulation score [2]: inactive: 0.138

CCN(CC)CCOc1ccc(C(=C(Cl)c2ccccc2)c2ccccc2)cc1.O=C(O)CC(O)(CC(=O)O)C(=O)O [Clomid]
scaled lipid accumulation score [2]: active: 0.963

COc1cc(OC2CCN(C)CC2)ccc1Nc1ncc2c(n1)n(C1CCCC1)c(=O)n2C
scaled lipid accumulation score [2]: active: 1.06

Cn1cnc2c(F)c(Nc3ccc(Br)cc3F)c(C(=O)NOCCO)cc21
scaled lipid accumulation score [1]: inactive: ≤ 0 | scaled lipid accumulation score [2]: inactive: ≤ -0.001

C#Cc1cccc(Nc2ncnc3cc(OCCOC)c(OCCO)cc23)c1
scaled lipid accumulation score [1]: inactive: ≤ 0 | scaled lipid accumulation score [2]: inactive: ≤ 0

O=Nc1ccc2oc(=O)ccc2c1 [6-Nitroso-1,2-benzopyrone]
scaled lipid accumulation score [2]: active: 0.9

CC(C)(C)CC(C)(C)c1cc(Cc2cc(C(C)(C)CC(C)(C)C)cc(-n3nc4ccccc4n3)c2O)c(O)c(-n2nc3ccccc3n2)c1
scaled lipid accumulation score [2]: inactive: ≤ 0

NC(=O)c1cnccn1 [Pyrazinecarboxamide]
scaled lipid accumulation score [2]: inactive: ≤ 0

NC(=O)c1cnccn1
scaled lipid accumulation score [2]: inactive: ≤ 0

NC(=O)c1cnccn1 [Pyrazinamide]
scaled lipid accumulation score: inactive: 0.028 | scaled lipid accumulation score [1]: inactive: ≤ 0 | scaled lipid accumulation score [2]: inactive: 0.036 and inactive: ≤ 0 | scaled lipid accumulation score (library stock concentration: 16.2 mM): inactive: ≤ 0

C(=C/CCN(C)C)(/c1c2cccc1)\c3c(cccc3)C=C2.Cl [Cyclobenzaprine hydrochloride]
scaled lipid accumulation score [2]: active: 0.991

Nc1nc(N)c(N=O)c(OCC2CCCCC2)n1
scaled lipid accumulation score [1]: inactive: ≤ -0.009 | scaled lipid accumulation score [2]: inactive: 0.305 and inactive: ≤ 0

Cc1cc2ncc(-c3ccccc3)nc2cc1C
scaled lipid accumulation score [1]: inactive: ≤ 0

c1cn2cc(-c3ccc4cn[nH]c4c3)nc(Nc3ccc(N4CCOCC4)cc3)c2n1 [Entospletinib]
scaled lipid accumulation score [5]: active: 1.2 | scaled lipid accumulation score [2]: active: 1.21

O=C(CCNNC(=O)c1ccncc1)NCc1ccccc1
scaled lipid accumulation score [2]: inactive: ≤ 0

O=C(CCNNC(=O)c1ccncc1)NCc1ccccc1 [Nialamide]
scaled lipid accumulation score: inactive: ≤ 0 | scaled lipid accumulation score (library stock concentration: 6.7 mM): inactive: ≤ -0.006 and inactive: ≤ 0 | scaled lipid accumulation score [2]: inactive: 0.262
